Positions count from the first letter of the chain named. Numbers in names are those of the source. ± gives the standard deviation of the averaged measurements. Laboratory Escherichia coli strains with one amino-acid change in an essential protein, pooled on minimal glucose agar with carbenicillin or gentamicin at twice the control MIC (plus kanamycin and chloramphenicol for the plasmids), 48 h. Fold change of barcode share against drug-free plates; higher = less susceptible. Active = above 20 in both replicates (the paper's putatively resistant). '<' = one read or none on drug, '>' = one read or none on a drug-free plate. Shares are relative, so most strains fall below 1 when a few take over. Listed are strains with at least 15 reads on both drug-free plates, and hits; most hits rest on fewer reference reads. Replicate rank correlation about 0.5. Edits are read from barcodes.
B1: hemG L25Q (protein)
chain: MKTLILFSTRDGQTREIASYLASEQKELGIQADVANVHRIEEPQWENYDRVVIGASIRYGHYHSAFQEFVKKHATRLNSMPSAFYSVNLVARKPEKRTPQTNSYARKFLMNSQWRPDRCAVIAGALRYPRYRWYDRFMIKLIMKMSGGETDTRKEVVYTDWEQVANFAREIAHLTDKPTLK
B2: hemG V52A (protein)
chain: B1 chain with Q25L, V52A
B3: argG L249W (protein)
chain: MTTILKHLPVGQRIGIAFSGGLDTSAALLWMRQKGAVPYAYTANLGQPDEEDYDAIPRRAMEYGAENARLIDCRKQLVAEGIAAIQCGAFHNTTGGLTYFNTTPLGRAVTGTMLVAAMKEDGVNIWGDGSTYKGNDIERFYRYGLLTNAELQIYKPWLDTDFIDELGGRHEMSEFMIACGFDYKMSVEKAYSTDSNMLGATHEAKDLEYLNSSVKIVNPIMGVKFWDESVKIPAEEVTVRFEQGHPVAWNGKTFSDDVEMMLEANRIGGRHGLGMSDQIENRIIEAKSRGIYEAPGMALLHIAYERLLTGIHNEDTIEQYHAHGRQLGRLLYQGRWFDSQALMLRDSLQRWVASQITGEVTLELRRGNDYSILNTVSENLTYKPERLTMEKGDSVFSPDDRIGQLTMRNLDITDTREKLFGYAKTGLLSSSAASGVPQVENLENKGQ
B4: hemL V206A (protein)
chain: MSKSENLYSAARELIPGGVNSPVRAFTGVGGTPLFIEKADGAYLYDVDGKAYIDYVGSWGPMVLGHNHPAIRNAVIEAAERGLSFGAPTEMEVKMAQLVTELVPTMDMVRMVNSGTEATMSAIRLARGFTGRDKIIKFEGCYHGHADCLLVKAGSGALTLGQPNSPGVPADFAKYTLTCTYNDLASVRAAFEQYPQEIACIIVEPAAGNMNCVPPLPEFLPGLRALCDEFGALLIIDEVMTGFRVALAGAQDYYGVVPDLTCLGKIIGGGMPVGAFGGRRDVMDALAPTGPVYQAGTLSGNPIAMAAGFACLNEVAQPGVHETLDELTTRLAEGLLEAAEEAGIPLVVNHVGGMFGIFFTDAESVTCYQDVMACDVERFKRFFHMMLDEGVYLAPSAFEAGFMSVAHSMEDINNTIDAARRVFAKL
B5: hemL V206Q (protein)
chain: B4 chain with A206Q
B6: hemL V99A (protein)
chain: B4 chain with V99A, A206V
B7: hemL V99W (protein)
chain: B4 chain with V99W, A206V
B8: hemL V99Q (protein)
chain: B4 chain with V99Q, A206V
B9: hemL I201A (protein)
chain: B4 chain with I201A, A206V
B10: hemL I201Q (protein)
chain: B4 chain with I201Q, A206V
B11: hemL I201P (protein)
chain: B4 chain with I201P, A206V
B12: hemL V203A (protein)
chain: B4 chain with V203A, A206V

molecular target: Escherichia coli (laboratory strain); assay: barcode share on antibiotic plates over drug-free plates; higher = less susceptible; conditions: antibiotic: carbenicillin; 2× MIC (3.1 µg/mL)
Procedure: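 A pool of E. coli strains, each edited to carry one amino-acid change in an essential protein, was grown for 48 h on minimal glucose agar with or without antibiotic; strain barcodes were sequenced; mean of two replicates.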

Row | Protein | fold change of barcode share
1 | B1 | 0.319 ± 0.061
2 | B2 | 0.628 ± 0.085
3 | B3 | 0.357 ± 0.065
4 | B4 | 0.302 ± 0.12
5 | B5 | 0.458 ± 0.23
6 | B6 | 0.294 ± 0.1
7 | B7 | 0.337 ± 0.12
8 | B8 | 0.299 ± 0.026
9 | B9 | 0.377 ± 0.067
10 | B10 | 0.336 ± 0.0026
11 | B11 | 0.35 ± 0.3
12 | B12 | 0.347 ± 0.1

same assay, conditions: antibiotic: gentamicin; 2× MIC (MIC 0.45 µg/mL)

Row | Protein | fold change of barcode share
13 | B1 | 0.0041 ± 0.0013
14 | B2 | < 0.00133
15 | B4 | 0.00532 ± 0.0041
16 | B5 | 3.91 ± 2.5
17 | B6 | < 0.0079
18 | B7 | < 0.00927
19 | B8 | 0.00832 ± 0.0052
20 | B9 | 0.131 ± 0.18
21 | B10 | 0.010628 ± 1.7e-06
22 | B11 | < 0.0137
23 | B12 | 0.0241 ± 0.008
